# Assay results as given in the supplement of paper PMC11417369.
# ± gives the standard deviation of the averaged measurements. This is one part of the list.
# System: PfAP2-G AP2 domain (GST-tagged)
# Assay: gcPBM binding intensity (ln(normalized median fluorescence intensity)); higher = stronger DNA binding
# Method in brief: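 Plasmodium falciparum DNA-binding domains carrying a GST tag were expressed in E. coli and applied for 1 h, at about 25 μg on average, to an Agilent 4 × 180k array. The array held primer-extended double-stranded 36-bp intergenic genomic probes together with negative controls, and binding took place in 1× PBS with 1% milk, 0.2 mg/ml BSA, 0.5% salmon testes DNA and 0.03% Triton X-100. An Alexa488 anti-GST antibody detected bound protein, and the array was scanned at 488 nm. Binding intensity is taken as the highest Masliner-normalised natural-log median intensity across replicate spots of either probe orientation.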
row,Sequence,gcPBM binding intensity (ln)
1,ATAAATTTACATTTTTTTTTTTTTTTTTTTTTTTTT [GTGCAC_negctrl_site689],10.9 ± 0.66
2,GTATAGTACAAATAAGTGCATATAAAAGAAATACAG,10.9 ± 0.49
3,TAATTTTTATTCAGTTCACACACGCTTTAATATTAT [CACACA_site9147],10.2 ± 0.12
4,TAGTAATATGTATCCATACACACATACATTTTATTT [CACACA_site873],10.13 ± 0.092
5,TTTTCCTTTCACAATGGTACACAAATATACATGCAA [XGTACX_site7244],11.2 ± 0.8
6,ATTTTTTTTCGTAATTGTTCTTAATGTTGAATTATA [CACACA_negctrl_site1135],9.9
7,ATTTAAAATAGAAGTTATATTTATATGGGTGAAAAA [GTGCAC_negctrl_site296],9.94 ± 0.071
8,GGAATAACCGGACACACACACACATATATATATATA [CACACA_site5874],10.5 ± 0.15
9,GTACACCTATAATATACACACAACAAATATGCACAT [CACACA_site6603],11.1 ± 0.44
10,ATTATATATATATATACACACACATATATATATATA [CACACA_site8373],10.1 ± 0.46
11,ATCTTATATATATGTGTGCACGTATATATAAGCAAT [GTGCAC_site9933],10.4 ± 0.25
12,TTATTCATACAATATCGTACATATATATATATATAT [XGTACX_site1185],11 ± 0.69
13,TCTAATCTGGAGAAAAGTACATAGTATCTGGTAACA [XGTACX_site2540],11.2 ± 0.8
14,AAAAAAATACAAATATGTACACATATATATTTAAAA [XGTACX_site4729],11.5 ± 1.1
15,AAATAAAATATGAACAGTACTTTTGATATAACCATT [XGTACX_site1873],11 ± 0.67
16,TTATAAATAAAAAGAGTGCAATTATAAATATATATA,10.1 ± 0.23
17,GTATGTATGTATGTATGTACTTATTTATTTATTTAT [XGTACX_site1921],11.3 ± 0.84
18,ACCTTTAATATATACACACACATAAAAAAAATATAT [CACACA_site1843],10.3 ± 0.3
19,AAATATTCATAGTATACACACATTTATTTATAACCA [CACACA_site6502],10.03 ± 0.071
20,TAAATTTAAAATGACACACACTAAAATTATTTAAGT [CACACA_site4816],10.05 ± 0.021
21,CTGTTTTTACTAAGTTGTACAAATGATGATACCCTA [XGTACX_site630],11.3 ± 0.63
22,ATACAATAATATAAATGTACAAATTATATCTTAATT [XGTACX_site6004],10.7 ± 0.16
23,CTATATTTTTAAAAATGTACTTTATAATAAAATACT [XGTACX_site3593],11.1 ± 0.74

row,Sequence,gcPBM binding intensity (ln)
1,TAAAAGTATTCCTTTTGTACATATAATGAAAACAAT [XGTACX_site2069],10.9 ± 0.51
2,TTCAATTTTACATGTAGTACATAAATTATACACAAA [XGTACX_site4946],11.6 ± 0.86
3,TTATTCCTATTTGGATGTACATTTTAATATAAACAT [XGTACX_site4386],11.1 ± 0.63
4,TTTTTTAATTTTACATGTACATACAGGTTTTTTTTT [XGTACX_site4539],11.2 ± 0.65
5,AAAAAAGAAAAGAAATGTACAGAGCTTATCTTTTTA [XGTACX_site5677],10.6 ± 0.45
6,AAAAAATTGTTTCCCTGTACTCAAAAAAAAAAAAAA [XGTACX_site8070],11.4 ± 1.1
7,AATGATAAAAATAAATGTACAGAATGATATTTTTTT [XGTACX_site5976],10.8 ± 0.4
8,ATTAATAAATAAATGACACACACACCCACAAAAAAA [CACACA_site8839],10.5 ± 0.46
9,GTTTTTTTTTTTTTGGTGCGTCATTTTCAAAAGAAG [GTGCAC_site9745],10.4 ± 0.2
10,TAAAATTTACGGTCTTGTTGCGCAACCAACATTGTC [CACACA_negctrl_site1175],10.7 ± 0.42
11,TAATAATAGTAAATATGTACATATATATATATATAG [XGTACX_site4602],11.2 ± 0.59
12,TTAGTAGTATTATGTAGTACATAATTATCATATCAT [XGTACX_site817],11.6 ± 1.1
13,ACTTAATTTTTTTTATGTACTTATTTAAAAAATTTT [XGTACX_site2712],11.4 ± 0.8
14,CTTAAAGGGAAAAATACACACATATAAATATTATGT [CACACA_site2225],9.875 ± 0.035
15,TTTTTTGAATTTAAAAGTACAGGCTTTTACCAAATA [XGTACX_site1356],11.3 ± 0.91
16,ATAAATAAATAAATCTGTACATATGTATATGTATAT [XGTACX_site4537],10.9 ± 0.45
17,AATTAAAAAAAAAAAAAAAAAAAAAAATGAAAAAAA [CACACA_negctrl_site1073],9.44 ± 0.057
18,AAAAAAAAAAAAAAAAGTACATACAACATTATGAAA [XGTACX_site207],11.4 ± 0.7
19,TAATTATTTTTATATTGTACAATATGTAAATATATA [XGTACX_site592],10.8 ± 0.58
20,AAAAAAGAAAAAAAGTGTACAATATTTATTACATAT [XGTACX_site2277],11.3 ± 0.83
21,ATAATCCTTGGACACACACACACACTAGTAAATAAA [CACACA_site4423],10.9 ± 0.57
22,AACCCAAAATAATTATGTACATATTTTTAAATATAT [XGTACX_site6487],11.3 ± 0.77
23,TTTGTGTATATAACAGTGCAATATTATAAATATAAA [GTGCAC_site9750],9.955 ± 0.092

row,Sequence,gcPBM binding intensity (ln)
1,GCAAAGCACAAATATGCATGTAGATATAGAATAATG [TGCATGCA_site382],9.87 ± 0.11
2,CATTATATATATTACTAAAAATTTTACCCCTTAGCT [CACACA_negctrl_site302],10.1 ± 0.15
3,ATGTATATAAATATACGTACATAAATATAAGTATAG [XGTACX_site7155],11.5 ± 0.91
4,ATACATGAATAAATATGTACACATATAAAAACATAT [XGTACX_site2740],11.5 ± 0.88
5,TATATTTCATTATATTGTACAAAATATATATATTAT [XGTACX_site4644],10.7 ± 0.4
6,TTTTTTCTTTTTATGTGTACTTATTTTATTTAATAA [XGTACX_site1080],11.7 ± 1.1
7,ATTATTTGAACAACAAAAAAAAAGAAAAGAAAAGAA [CACACA_negctrl_site1031],10.11 ± 0.042
8,TCATATTATAAATAAATAAATAAATATATATATATA [CACACA_negctrl_site577],9.72 ± 0.46
9,AAATCGTAATATATTTGTACTTATTTGAAAAATCCA [XGTACX_site8141],11.1 ± 0.72
10,TTTTAACAAAACTAAATAATCATATATATAAGATAT [GTGCAC_negctrl_site298],9.59 ± 0.13
11,CATTTCTATATAAGCACACACGTGGAATTTTTTTTT [CACACA_site5537],10.23 ± 0.057
12,TTTTTTTTCTTTTTTTTAAGAAATAAATAAATAATT [XGTACX_negctrl_site137],9.66 ± 0.35
13,AACACGCGCAGACACACACACACACGCACATATATA [CACACA_site7104],10.5 ± 0.33
14,ATATACTTTTCAATGTGTACTTATGAATATATATGT [XGTACX_site7972],11.5 ± 0.83
15,TATTTTCAAAATGTTGTACACACAAAAAAAAAAAAA [CACACA_site8437],11.5 ± 1.1
16,TTATTTCTAACATGATGTACTTTTATATTATATAAT [XGTACX_site3574],11.2 ± 0.88
17,TTTTTTTTATATATCTGTACATATATATATATATAT [XGTACX_site8280],11 ± 0.68
18,TATTTATAAATATGTGTGCACAATTTATTTTATAAT,10.4 ± 0.2
19,ATATTAAATATTATCACACACATAATTATTTCCATA [CACACA_site2334],9.96 ± 0.071
20,CACTTAAAAAGCTAACGTACAAATACACATATATAA [XGTACX_site1851],11.1 ± 0.61
21,AAAAACAATTTAATCACACATATATGTCACAAAGAT [CACACA_site5043],10.125 ± 0.007
22,TAATAATAGAAACACACACACATAGACATATATATA [CACACA_site1307],9.79 ± 0.042
23,ATGATTATACAAAATATACACACGTGTAGACAAATA [CACACA_site1175],10.3 ± 0.11

row,Sequence,gcPBM binding intensity (ln)
1,ATATATATATATATATGTACATACATATTGTTTGGT [XGTACX_site2284],11.1 ± 0.46
2,CAAAATATTTTTTCCTGTACATAATTCCTATTTCAC [XGTACX_site3590],11.1 ± 0.59
3,ATATAATAATATGGTTGTACATAAATAACACATGAA [XGTACX_site6592],11.3 ± 0.66
4,GATATCCTTATATTTGCACACACACCCAATAAAATG [CACACA_site1028],10.5 ± 0.28
5,AAAAAATACAGACACACACACACACGCATATAAATA [CACACA_site7644],10.3 ± 0.29
6,TATATATATAACAGAATGCACTTTATATGTTCATAT [GTGCAC_site9880],9.905 ± 0.007
7,TATACGTATACCTATACACACATATATTTATTTATA [CACACA_site6716],10.3 ± 0.19
8,TTTTTTTATTTTGTATGTACATATCATTTGATATTC [XGTACX_site8449],11.1 ± 0.71
9,TAATAAATTCATAATTGTACATTGAAGTATTATGCA [XGTACX_site5121],10.6 ± 0.32
10,TTGTTTATATATATATGTACATATTTTAAGGCATCC [XGTACX_site6976],11.3 ± 0.86
11,CCACGTATACGATGCACACGTATGCTTTATATATAG [CACACA_site4108],10.165 ± 0.007
12,ATTAAATCCGCACGCACACACACATATTAAGAAAAA [CACACA_site6062],10.6 ± 0.54
13,GTTGAAAAAAATATATGTACGTATATATGTATGTAT [XGTACX_site8201],11.5 ± 0.97
14,AGTAGCGGCGGTATCATGCACACGTATAGATTGTAA [CACACA_site1587],10.3 ± 0.23
15,TTGGTAAATATATTTTGAATATAAGAAATATAGACG [CACACA_negctrl_site1634],10.08 ± 0.071
16,ATTATTACTATATGTGTACACATCAACTGGTTTGAT [CACACA_site5563],11.6 ± 0.97
17,AAAATATATTATTATTGTACATATATTTTCATTTAC [XGTACX_site4593],11.1 ± 0.49
18,TAAATATATTTATAAGCACACACTAATAAACCCACA [CACACA_site390],10.6 ± 0.38
19,AATTTTTATACGGATACACACAAAAAAAAATAAAAA [CACACA_site897],10.5 ± 0.45
20,TTTATTTTGTTTATGGTGCATTTTATGTAAATATAT,10.2 ± 0.28
